Hit rate of the full screen: of about 310,000 compounds, about 14,000 (4.5%) showed an effect of 50% or more. The effect is printed as a negative number. The list shows a part of the results.
These compounds were tested against human ether-à-go-go-related gene (hERG) potassium channel (human, UniProt Q12809) (assay: primary screen, population patch clamp on CHO cells stably expressing hERG).
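Further: peak tail current of the secondary pulse compared with the same well before compound.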

Chain of human ether-à-go-go-related gene (hERG) potassium channel (Q12809 whole entry, looked up): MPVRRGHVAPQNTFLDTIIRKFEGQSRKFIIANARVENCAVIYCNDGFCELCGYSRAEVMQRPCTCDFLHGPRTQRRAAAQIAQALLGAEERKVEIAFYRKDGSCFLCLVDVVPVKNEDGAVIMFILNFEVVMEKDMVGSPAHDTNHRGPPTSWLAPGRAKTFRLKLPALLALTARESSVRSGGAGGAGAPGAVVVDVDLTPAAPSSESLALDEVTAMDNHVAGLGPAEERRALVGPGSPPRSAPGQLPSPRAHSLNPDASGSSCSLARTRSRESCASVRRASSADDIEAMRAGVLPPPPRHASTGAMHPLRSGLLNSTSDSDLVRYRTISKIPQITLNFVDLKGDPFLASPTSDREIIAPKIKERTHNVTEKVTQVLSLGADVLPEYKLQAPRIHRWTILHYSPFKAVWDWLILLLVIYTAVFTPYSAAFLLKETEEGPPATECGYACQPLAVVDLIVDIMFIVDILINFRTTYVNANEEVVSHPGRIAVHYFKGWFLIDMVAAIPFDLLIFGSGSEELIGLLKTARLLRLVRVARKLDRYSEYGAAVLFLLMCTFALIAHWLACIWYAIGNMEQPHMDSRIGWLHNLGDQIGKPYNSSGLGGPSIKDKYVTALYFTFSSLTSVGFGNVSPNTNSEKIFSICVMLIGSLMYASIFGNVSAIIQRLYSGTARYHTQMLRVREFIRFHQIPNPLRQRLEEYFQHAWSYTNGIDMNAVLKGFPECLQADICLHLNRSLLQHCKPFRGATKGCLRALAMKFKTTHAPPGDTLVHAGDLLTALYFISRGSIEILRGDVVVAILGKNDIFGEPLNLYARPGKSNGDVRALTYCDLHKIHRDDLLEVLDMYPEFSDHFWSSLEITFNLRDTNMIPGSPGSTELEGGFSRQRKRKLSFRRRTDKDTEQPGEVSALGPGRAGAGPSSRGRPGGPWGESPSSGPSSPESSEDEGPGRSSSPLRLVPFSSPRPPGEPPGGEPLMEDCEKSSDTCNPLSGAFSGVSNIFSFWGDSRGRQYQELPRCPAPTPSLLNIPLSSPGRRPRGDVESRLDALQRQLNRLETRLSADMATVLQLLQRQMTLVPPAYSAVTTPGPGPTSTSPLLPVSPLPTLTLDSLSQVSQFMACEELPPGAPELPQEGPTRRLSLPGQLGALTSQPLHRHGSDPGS

SMILES	hERG current change (%, negative = inhibition) at 10uM [%]
CSc1sc(-c2ccnc(SCCS(C)(=O)=O)n2)c(-c2ccccc2)c1C#N	-8.75
CCCNC(=O)Cn1c(=O)/c(=C\c2ccc(-c3ccc([N+](=O)[O-])cc3)o2)s/c1=C\C(=O)C(C)(C)C	1.64
Cc1cc(Nc2ccc(C(=O)N3CCCCC3)cc2)c2cccc(C)c2n1	-23.5
Cc1ccc(NC2CCCN(C(=O)c3cnc4ccccn4c3=O)C2)cc1C (stereo not drawn)	-3.33
COc1ccc(C(=O)N2CCN(S(=O)(=O)c3ccccc3)CC2)c(OC)c1	-25.4
Cc1ccc2c(C(=O)CN3CCSCC3)c(C)[nH]c2c1	2.57
CC(C)C1COC(c2cccn2Cc2ccccc2Cl)=N1 (stereo not drawn)	18.6
O=C(NC1CCCC1)C1CCC(CNS(=O)(=O)c2ccccc2)CC1 (stereo not drawn)	14.8
C=CCn1c(COc2ccccc2)nnc1SC(C)C(=O)N/N=C/c1cc(Cl)ccc1O (stereo not drawn)	0.335
COc1ccccc1NC(=O)Nc1nc(CC(=O)NCc2cccnc2)cs1	-13.3
NS(=O)(=O)c1ccc2c(c1)oc(=O)c1cc(S(N)(=O)=O)ccc12	9.35
CC(=O)c1c(C)[nH]c(C(=O)Nc2cc(C)cc(C)c2)c1C	-1.09
COC1(NC(=O)c2ccccc2)C(C)=CC(=O)C=C1C	4.34
Cc1ccc(C(=O)NCc2ccccn2)c(Cl)c1	19.7
O=C(CNC(=O)c1ccccc1)OCC(=O)N1N=C(c2ccc(Cl)cc2)CC1c1ccco1 (stereo not drawn)	-72.5
COc1cc2c(=O)n(CC3CCCO3)c(=O)n(CC(=O)Nc3cccc(Cl)c3)c2cc1OC (stereo not drawn)	27.3
CCN(CC)c1nc(-c2ccc(Cl)cc2)cc(C(F)(F)F)c1C#N	4.87
O=C(c1cccc([N+](=O)[O-])c1)N1CCN(c2cccc(Cl)c2)CC1	-57.4
N#CCCn1cc(C(=O)N2CCCCC2)c(-c2ccc([N+](=O)[O-])cc2)n1	8.61
CC(=O)c1cccc(NC(=O)c2ccc(C)c(S(=O)(=O)N3CCOCC3)c2)c1	-3.6
Cc1ccccc1CSCCNC(=O)c1ccc(Cl)c(S(=O)(=O)N2CCOCC2)c1	-42.2
CC1(C)C2CCC1(CS(=O)(=O)NCCc1c[nH]c3ccccc13)C(=O)C2 (stereo not drawn)	-0.243
COc1ccc(S(=O)(=O)N2Cc3ccccc3CC2C(=O)Nc2ccc(O)cc2)cc1OC (stereo not drawn)	-14.7
Cc1ccc(C)c(S(=O)(=O)Nc2nc3ccc(S(N)(=O)=O)cc3s2)c1	11.9
CC(=O)Nc1cc(C(=O)N2CCN(C)CC2)ccc1Sc1ccc(C)cc1	-13.5
COc1ccc(N2Cc3ccccc3C2=O)cc1	16.2
Cn1nccc1C(=O)Nc1ccn(C23CC4CC(CC(C4)C2)C3)n1	-11.6

SMILES	hERG current change (%, negative = inhibition) at 10uM [%]
CCN(CC(=O)Nc1cc(S(=O)(=O)N2CCOCC2)ccc1C)Cc1ccccc1	-31.1
Cn1c(NCc2ccccc2Cl)nc2ccccc21	-1.9
CC(Sc1nnc(CN2CCCC2)n1Cc1ccccc1)C(=O)Nc1ccc(F)cc1 (stereo not drawn)	-61.4
Cc1nc2ncc(Br)cc2[nH]1	16.8
O=C(Cc1coc2cc3c(cc12)CCC3)NCC1(N2CCCCC2)CCCCC1	-76.9
Cc1ccc(N2CC(C(=O)Nc3nccs3)CC2=O)cc1Cl (stereo not drawn)	-5.33
CCNc1ccc(C(=O)OCC(=O)NC(C)c2ccccc2)cc1[N+](=O)[O-] (stereo not drawn)	6.5
CCOCCCNC(=S)N1CCN(c2nc(-c3ccccc3)cs2)CC1	1.6
CCN(C(=O)Cn1nnc(-c2ccccc2)n1)C1CCS(=O)(=O)C1 (stereo not drawn)	4.55
CCN1CCn2c1nc(N1CCOCC1)nc2=O	9.86
COc1ccc(OC)c(N(CC(=O)Nc2ccccc2F)S(=O)(=O)c2ccccc2)c1	-2.15
COc1cccc(NC(=O)CN(C)C(=O)CCCc2c[nH]c3ccccc23)c1	-11.9
CCN1C(=O)C(CC(=O)Nc2ccc(Br)cc2)N(CCCc2ccccc2)C1=S (stereo not drawn)	12.6
CCc1c(C)c(C#N)c2nc3ccccc3n2c1NCCN(C)C	-5.68
Cc1ccc(S(=O)(=O)N[C@@H](C)C(=O)N2CCC(C(=O)N3CCC[C@H]3C(=O)O)CC2)cc1	15.5
COCCNC(=O)c1nc2c(nnn2Cc2cc(C)ccc2C)c(=O)[nH]1	0.206
CCC(=O)NCCCc1nc(-c2ccccc2)no1	5.95
O=C(Nc1ccccc1)OCCNC(=O)c1cccc(Cl)c1	1.04
O=C(CCCn1c(=O)[nH]c2ccccc2c1=O)NCCSCc1ccccc1	0.15
CCOC(=O)c1c(N2C(=O)Nc3ccccc3N2O)n[nH]c1-c1cccc(OC)c1	13.1
CCOc1ccccc1N(C(=O)c1snc(C(N)=O)c1N)C(C(=O)NC1CCCC1)c1ccco1 (stereo not drawn)	-55
O=S(=O)(NC(=NCc1ccccc1)c1ccccc1F)c1ccccc1	-10.3
O=C(CCc1ccccc1)Nc1nc2nc(-c3ccccc3)cc(=O)n2[nH]1	5.65
O=C1N/C(=C/c2ccc(N3CCOCC3)o2)C(=O)N1c1cccc(Cl)c1	-12.1
Cc1ccc(N2CC(NC(=O)N3CCN(C(=O)c4ccco4)CC3)CC2=O)cc1 (stereo not drawn)	-52.6
COc1ccccc1CNC(=O)c1cc(S(=O)(=O)N2CCOCC2)cn1C	-0.737
O=C(NCC1CCCN1S(=O)(=O)c1cccs1)c1ccc([N+](=O)[O-])cc1 (stereo not drawn)	-55.2

Source: publication PMC4336329 (PLoS ONE, 2015)
